The source of these data is publication PMC6212790.

This is one part of the list. At the low end of the ranking, values are background and their order means little.

The target of the assay is T1, GST-Rok-C97-191 (UniProt O34857).
T1 sequence: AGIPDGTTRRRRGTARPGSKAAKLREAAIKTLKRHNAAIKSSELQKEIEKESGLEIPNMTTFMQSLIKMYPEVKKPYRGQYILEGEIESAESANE
Description: protein binding microarray.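 Further: rank score from −0.5 (least bound) to 0.5 (best bound).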 The following applies: Rok is a gene silencer of Bacillus subtilis; high values mean tight binding; most listed sequences are background and not binding sites; double strand, one strand shown.
For ATGTGGGG, the binding signal was -0.0516 E-score.

CGTTTTAG: the binding signal is 0.0423 E-score.

In turn, CTCAGTGA came in with a binding signal of -0.0652 E-score.

AGGGAATA had a binding signal of -0.0692 E-score.

CACTCATC yielded a binding signal of -0.0404 E-score.

Regarding CAGGGTCA, the binding signal was -0.0737 E-score.

In the case of CCTACCTA, the binding signal is 0.166 E-score.

Take TACAGAGA: the binding signal amounted to 0.102 E-score.

For CAATGAGG, the binding signal is -0.135 E-score.

Turning to ACCTCGCA, the binding signal is 0.0431 E-score.

The sequence CGCTGTAG came in with a binding signal of 0.0107 E-score.

Turning to CGGGTATC, the binding signal is 0.00348 E-score.

With TCCACTAA, the binding signal worked out at 0.126 E-score.

GCTGCTAC gave a binding signal of 0.0824 E-score.

As for AGTGGGAG, the binding signal was -0.139 E-score.

The sequence CGGTCAGC displayed a binding signal of -0.297 E-score.

Turning to GTGTATTA, the binding signal was 0.11 E-score.

Turning to AGTCCTGA, the binding signal is -0.163 E-score.

Sequence CATTATAC showed a binding signal of 0.177 E-score.

In the case of AGAGTGAT, the binding signal is -0.00889 E-score.

As for AGACACCC, the binding signal worked out at 0.0829 E-score.

GCTGGAAA displayed a binding signal of -0.0362 E-score.

For the sequence ATGGCTGG, the binding signal was -0.117 E-score.

AGTCGGCG displayed a binding signal of -0.226 E-score.

The sequence CTGTCTCC yielded a binding signal of -0.29 E-score.

The sequence ACGTACCG showed a binding signal of -0.062 E-score.

In turn, AAAGGCCC returned a binding signal of -0.199 E-score.

On to CGAACTTC, for which the binding signal amounted to 0.105 E-score.

In the case of ACCTTTTA, the binding signal is 0.118 E-score.

Take AGAACGTC: the binding signal came to 0.0063 E-score.

For the sequence CAACCAAA, the binding signal was -0.0777 E-score.

For the sequence AACCGTCT, the binding signal was -0.00298 E-score.

Consider AATTGTGC, for which the binding signal is -0.0187 E-score.

For the sequence AACCAGAT, the binding signal was 0.0122 E-score.

Sequence ATTAATAG came in with a binding signal of 0.261 E-score.

The sequence GATGCGCA yielded a binding signal of -0.00409 E-score.

ATTCGTGG displayed a binding signal of -0.106 E-score.

Turning to CACAACTA, the binding signal amounted to 0.199 E-score.

Take ATGTTTCG: the binding signal was 0.143 E-score.

Consider CTAGGATA, for which the binding signal is 0.144 E-score.

For AGAATCTC, the binding signal stood at 0.0267 E-score.

As for GATGAATC, the binding signal is -0.0753 E-score.

The sequence ACGAAAGA displayed a binding signal of 0.0386 E-score.

Sequence GGGTTACC displayed a binding signal of -0.178 E-score.

Regarding AGTATCAG, the binding signal was -0.0283 E-score.

In turn, GATTCGGA showed a binding signal of 0.106 E-score.

Sequence AGAATACC displayed a binding signal of -0.0379 E-score.

Sequence AGCTTTCC had a binding signal of -0.077 E-score.

Sequence AATACCTA came in with a binding signal of 0.27 E-score.

AGCCCAAC registered a binding signal of -0.251 E-score.

AAGATCCT displayed a binding signal of 0.0236 E-score.

The sequence GAACGCTC returned a binding signal of -0.152 E-score.

For the sequence CCTGACCA, the binding signal was -0.111 E-score.

The sequence ATGCGACA had a binding signal of -0.166 E-score.

Regarding AAGCCAAG, the binding signal is -0.0632 E-score.

For CATGCGGG, the binding signal is -0.144 E-score.

TCTGCGCA yielded a binding signal of -0.0307 E-score.

Sequence CGGTGCAA showed a binding signal of 0.0152 E-score.

For AGTGGGGG, the binding signal is -0.213 E-score.

Turning to TACATCGA, the binding signal amounted to 0.231 E-score.

Consider GAGCCAGA, for which the binding signal is -0.149 E-score.

For the sequence CAACTCTA, the binding signal worked out at 0.127 E-score.

CGGTTATC returned a binding signal of -0.0737 E-score.

In turn, TACCCACA yielded a binding signal of 0.0202 E-score.

Turning to AACTTGGC, the binding signal was -0.0638 E-score.

With CCGACGAC, the binding signal is -0.216 E-score.

Take ACCAACAC: the binding signal stood at 0.0682 E-score.

In turn, TCATTGCA yielded a binding signal of -0.14 E-score.

As to CAATTGGC, the binding signal was -0.0983 E-score.

For ATACATTA, the binding signal amounted to 0.275 E-score.

In the case of ATTACGTG, the binding signal was 0.144 E-score.

Take ACTGCGAG: the binding signal was 0.0579 E-score.

In turn, AGGTGTAG came in with a binding signal of 0.13 E-score.

In the case of CAGCCCCG, the binding signal was -0.308 E-score.

ACTTCAGC displayed a binding signal of 0.167 E-score.

On to AGACATCT, for which the binding signal came to 0.03 E-score.

CTCCAGAG: the binding signal is -0.172 E-score.

As for AGTCGCGC, the binding signal was 0.0627 E-score.

Consider ACCTTTAG, for which the binding signal was -0.0786 E-score.

For GCTTGCAA, the binding signal was -0.00333 E-score.

In turn, GAAAAAAA gave a binding signal of 0.0944 E-score.

Sequence CACCAAGC displayed a binding signal of -0.0373 E-score.

Sequence AACCGATG returned a binding signal of -0.279 E-score.

Sequence GATATAAA showed a binding signal of 0.34 E-score.

In the case of GAAGATTC, the binding signal worked out at 0.0351 E-score.

Consider AGACCGAC, for which the binding signal was found to be 0.017 E-score.

Sequence TTACCCAA showed a binding signal of 0.146 E-score.

The sequence CAGTACGA gave a binding signal of -0.0294 E-score.

Sequence GAATGGAC registered a binding signal of -0.0916 E-score.

As to ATTGTTCA, the binding signal came to 0.0705 E-score.

AATGCAAG displayed a binding signal of -0.125 E-score.

Regarding CCACATCG, the binding signal is -0.0124 E-score.

Regarding ACTCTACT, the binding signal came to 0.273 E-score.

On to CTCGTGAA, for which the binding signal was -0.298 E-score.

ATAGCGGA yielded a binding signal of 0.0158 E-score.

Take AGAGAAAC: the binding signal was 0.0619 E-score.

In the case of ATGTCAGG, the binding signal was -0.165 E-score.

ACGGTGTA came in with a binding signal of -0.00348 E-score.

TCTGCAAA gave a binding signal of -0.126 E-score.

Sequence ACATCGAC showed a binding signal of -0.00506 E-score.

Sequence ACCAGCGA registered a binding signal of 0.0716 E-score.

Turning to CGCGACCG, the binding signal is -0.251 E-score.

AGTAGCGC gave a binding signal of 0.0952 E-score.

On to GTACCTCA, for which the binding signal came out at 0.0999 E-score.

CCCCTACG: the binding signal is -0.368 E-score.

TATCCCAA displayed a binding signal of 0.0173 E-score.

In turn, CCGTTCGC gave a binding signal of -0.19 E-score.

In turn, CATAAAGG came in with a binding signal of -0.0425 E-score.

For GTAGTCGA, the binding signal was 0.166 E-score.

In turn, CAACTCCG showed a binding signal of -0.0429 E-score.

In turn, CTAGATAA registered a binding signal of 0.3 E-score.

AGTCGTTA had a binding signal of -0.0639 E-score.

As to CCTAAGCC, the binding signal is -0.202 E-score.

Turning to AAACAGTT, the binding signal was 0.203 E-score.

The sequence TCGTAGCA gave a binding signal of 0.116 E-score.

CCGGGGCG showed a binding signal of -0.367 E-score.

AGGCGCCG yielded a binding signal of -0.245 E-score.

Sequence AAATGCGA gave a binding signal of 0.101 E-score.

As for AATTAAAT, the binding signal came to 0.276 E-score.

ACGACCAT returned a binding signal of -0.0437 E-score.

Sequence CGCTCCTC returned a binding signal of -0.274 E-score.

For the sequence GATAGTGC, the binding signal is 0.0589 E-score.

For AAACGGCG, the binding signal was determined as 0.0819 E-score.

For the sequence CATTAGTA, the binding signal is 0.26 E-score.

On to ATATCCGC, for which the binding signal was 0.116 E-score.

AAACGATT showed a binding signal of 0.0508 E-score.

Consider GAAACAAC, for which the binding signal turned out to be 0.00876 E-score.

GAGGAAGC showed a binding signal of -0.106 E-score.

The sequence GCCTTGAC showed a binding signal of -0.199 E-score.

As for GTCGGCCA, the binding signal is -0.102 E-score.

Regarding ATTTGTTG, the binding signal is -0.00722 E-score.

CAGTCAGG showed a binding signal of -0.252 E-score.

In turn, CAAACCCG displayed a binding signal of -0.153 E-score.

In turn, AAGTTACA displayed a binding signal of 0.205 E-score.

AAAGACTG registered a binding signal of -0.218 E-score.

Regarding CCGAAGAA, the binding signal was 0.164 E-score.

ACGAGCGG had a binding signal of -0.169 E-score.

For ACACACGA, the binding signal was 0.0273 E-score.

Regarding CGCCTGAG, the binding signal was -0.129 E-score.

With ACAGGGGG, the binding signal was -0.359 E-score.

In the case of CGGAAGAG, the binding signal is -0.0946 E-score.

ATGCGCCC showed a binding signal of -0.183 E-score.

GCGCGCTA showed a binding signal of 0.237 E-score.

For the sequence ATTGGTGG, the binding signal was -0.106 E-score.

GGATAGTA yielded a binding signal of 0.142 E-score.

AGTGGTAA displayed a binding signal of 0.203 E-score.

The sequence CTCCCCAC came in with a binding signal of -0.342 E-score.

Sequence CATATTCC had a binding signal of 0.0183 E-score.

AAGGCAAA: the binding signal is -0.101 E-score.

As to AACCACAT, the binding signal is -0.0536 E-score.

CCAGGAGG registered a binding signal of -0.243 E-score.

Consider CCCGCTCC, for which the binding signal is -0.108 E-score.

AAATAGAT gave a binding signal of 0.343 E-score.

The sequence TGGTAACA yielded a binding signal of 0.162 E-score.

For AGATCGAA, the binding signal is 0.0101 E-score.

In turn, GCAGGGGC came in with a binding signal of -0.225 E-score.

Take ACACGCAA: the binding signal turned out to be 0.0721 E-score.

The sequence AGAGGGGC yielded a binding signal of -0.398 E-score.

Consider CAGTCAAC, for which the binding signal was -0.0828 E-score.

Consider CACAGCCA, for which the binding signal was -0.0441 E-score.

GCTCCAAC came in with a binding signal of -0.195 E-score.

For the sequence ACTAATAG, the binding signal stood at 0.292 E-score.

ATGAGAAT: the binding signal was determined as 0.178 E-score.

ACGGGGTA registered a binding signal of 0.0665 E-score.

Take AACAAGAT: the binding signal was -0.0656 E-score.

In turn, ACAATATA registered a binding signal of 0.354 E-score.

The sequence AAACTATA came in with a binding signal of 0.398 E-score.

Take ACTATACA: the binding signal worked out at 0.302 E-score.

For AAGCCTAG, the binding signal is -0.147 E-score.

On to GACAGGGC, for which the binding signal is -0.2 E-score.

In the case of CAATTGTC, the binding signal was -0.103 E-score.

For AATCAATG, the binding signal is -0.036 E-score.
